# Experimental data taken from PubChem BioAssay AID1347073 (National Center for Advancing Translational Sciences (NCATS), 2019).
# Among all 45,000 compounds or so, about 200 (0.44%) were called active. Another 7% or so got no clear call; they are omitted. The call rests on the fitted dose curve; in most records, active means well fitted activation curve with a large enough effect; inconclusive means small, poorly fitted or top-dose-only effect; inactive means no such curve, though single readings can be large or run the other way. Some of the results follow.
# Test: qHTS of TDP-43 Inhibitors: NCGC Sytravon Library Screen; further: 0% is about no effect; nearly all actives have a fitted effect of over 55% in size
# Conditions: yeast TDP-43 toxicity rescue, BacTiter-Glo growth, 24 h; series mostly up to 46.1 µM; growth rescue (activation): at the top concentration
# How it was run: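 TDP-43-expressing yeast, pregrown in raffinose, seeded at OD600 0.02 in galactose medium with compound for 24 hr at 30 deg C. Growth read by BacTiter-Glo luminescence, so rescue of toxicity appears as activation.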
row,Compound,growth rescue (activation)
1,O=C(Cc1ccc(Br)cc1)Nc1cccc(Cl)c1,inactive: -4.9%
2,O=C(Cc1ccc(NS(=O)(=O)c2ccc(F)cc2)cc1)NCc1cccnc1,inactive: -6.58%
3,COc1cnc(-c2ccccc2)[nH]c1=O,inactive: -4.47%
4,COc1cc(Cn2c3ccc(NC(=O)CC(C)(C)C)cc3c(=O)n2C)ccc1F,inactive: 11%
5,Cc1ccc(S(=O)(=O)N2CCN(C(=O)c3ccc(Br)o3)CC2)c(C)c1,inactive: 18%
6,Cc1cccc(NC(=O)N2CCN(Cc3ccc(Cl)cc3)CC2)c1,inactive: -6.98%
7,CC(NS(=O)(=O)c1ccc(OCC(=O)N2CCCC2)cc1)c1ccccc1 (stereo not drawn),inactive: -4.41%
8,C=CCc1cc(OC)ccc1OCC(O)CN1CCN(c2ccc(OC)cc2)CC1 (stereo not drawn),inactive: 2.23%
9,CCn1c(CC(=O)Nc2ccccc2)nnc1SCC(=O)Nc1nnc(C)s1,inactive: -2.37%
10,Cc1ccc(CNC(=O)C2CCC(=O)N2Cc2ccc(F)cc2)cc1 (stereo not drawn),inactive: 14.2%
11,CN(c1ccc([N+](=O)[O-])cc1C(N)=O)C1CCCCC1,inactive: 1.34%
12,Cc1cccc2sc(NC(=O)c3ccc(NS(=O)(=O)c4cccs4)cc3)nc12,inactive: 8.61%
13,COc1ccc(CCC(C)NCC2CCCCC2)cc1 (stereo not drawn),inactive: -31.1%
14,CCn1c(SCC(=O)NC(=O)NCc2ccco2)nc2sc(C)c(C)c2c1=O,inactive: 27.8%
15,Cc1ccc(NC(=O)CSc2nnc(C3CC3)n2CC2CCCO2)c(C)c1 (stereo not drawn),inactive: -11.6%
16,CC(C)c1nnc(NC(=O)C2CCCN2C(=O)Nc2ccccc2)s1 (stereo not drawn),inactive: 3.61%
17,COC(=O)c1ccc2c(=O)[nH]c(CSc3nnc(C(F)(F)F)n3C)nc2c1,inactive: -12.4%
18,COc1ccc(NC(=O)CSc2nc3nc(C)cc(C)c3c(=O)[nH]2)cc1,inactive: -11.1%
19,CS(=O)(=O)Oc1ccc2c(c1)O/C(=C\C=C\c1ccccc1)C2=O,inactive: 8.71%
20,CCC(=O)Nc1ccccc1C(=O)OC(c1ccccc1)c1ccccc1,inactive: 6.83%
21,O=C(Nc1nc2ccccc2[nH]1)c1ccc(Cl)c([N+](=O)[O-])c1,inactive: 5.49%
22,COc1ccc(-c2nc(SC(C)C(=O)NC3CC3)n[nH]2)cc1 (stereo not drawn),inactive: 20.4%

row,Compound,growth rescue (activation)
1,CCOC(=O)c1ccc(N=C2SC(C(=O)Nc3ccc(C(=O)O)cc3)CC(=O)N2Cc2cccs2)cc1 (stereo not drawn),inactive: 9.57%
2,O=C(COC(=O)CC1c2ccccc2CCN1S(=O)(=O)c1ccccc1)Nc1ccccc1 (stereo not drawn),inactive: 9.56%
3,O=C(c1cccc([N+](=O)[O-])c1)N1CCN(c2n[nH]c(=O)[nH]c2=O)CC1,inactive: -0.835%
4,C/C(=N\N1CCN(Cc2ccccc2Cl)CC1)c1ccc([N+](=O)[O-])cc1,inactive: 18.9%
5,Cc1[nH]c2ccccc2c1C1(O)C(=O)N(Cc2ccc(Cl)cc2)c2ccccc21 (stereo not drawn),inactive: 4.95%
6,CCc1cccc(C)c1Nc1c(-c2cccc(O)c2)nc2sccn12,inactive: 15.7%
7,O=C(Nc1cccc(S(=O)(=O)N2CCCCCC2)c1)c1ccc2c(c1)OCO2,inactive: 6.14%
8,CC(=O)c1cc(F)ccc1OCC(=O)Nc1ccc2c(c1)OCO2,inactive: 5.19%
9,CCSc1nnc(NC(=O)c2cc(-c3ccccc3O)n[nH]2)s1,inactive: 24%
10,COc1ccc(C(=O)OCC(=O)Nc2c(C)cccc2C)cc1,inactive: 22.1%
11,CCNC(=O)C1(C)CCN(C(=O)c2cc(F)ccc2C)C1 (stereo not drawn),inactive: -8.9%
12,Cc1ccc(Sc2cc(C(=O)NCCCN(C)C)c3ccccc3n2)cc1,inactive: -0.284%
13,CCN(CC)S(=O)(=O)c1ccc2c(c1)N(CC(=O)Nc1ccc(NC(C)=O)cc1)C(=O)CO2,inactive: -2.57%
14,O=C(O)c1cccc(S(=O)(=O)Nc2ccc(Cc3ccncc3)cc2)c1,inactive: 15.9%
15,CC1CN(c2ccnc3cc(Cl)ccc23)CC(C)O1 (stereo not drawn),inactive: 5.77%
16,O=C(Nc1cccnc1)c1ccc(-c2ccc(Cl)cc2)o1,inactive: -0.588%
17,CC(=O)Nc1ccc(NC(=O)CCOc2cc(C)ccc2C)cc1,inactive: -11.2%
18,COc1ccc(-c2ccc(C(c3c(C)[nH][nH]c3=O)c3c(C)[nH][nH]c3=O)o2)c([N+](=O)[O-])c1,inactive: -2.31%
19,CCN(CC)S(=O)(=O)c1cccc(-c2n[nH]c(=S)n2C)c1,inactive: -11.9%
20,COc1ccc(NC(=S)NCCC2=CCCCC2)cc1OC,inactive: 13.1%
21,CNC(=O)c1cc(Cl)c(OC)c(OC)c1,inactive: 4.86%
22,COc1ccc(OCC(=O)Nc2cccc(C(=O)Nc3ccccc3C(=O)O)c2)cc1,inactive: 3.82%

row,Compound,growth rescue (activation)
1,Cc1cccc(N=C(NO)c2nonc2N)c1,inactive: -0.538%
2,CCCS(=O)(=O)NC(=O)C1(C)CCN(C(=O)Cc2ccc(OC)cc2)C1 (stereo not drawn),inactive: -8.17%
3,CCCn1c(CCNC(=O)c2ccco2)nc2ccccc21,inactive: -20.4%
4,NS(=O)(=O)c1ccc(NC(=O)CN2C(=O)C3C4C=CC(C4)C3C2=O)cc1 (stereo not drawn),inactive: -17.6%
5,CCN(C(=O)COC(=O)c1ccc(Br)o1)C1CCCCC1,inactive: 3.52%
6,Cc1cc(C)nc(SC2CC(=O)N(c3ccc(Cl)cc3)C2=O)n1 (stereo not drawn),inactive: -4.03%
7,CC(=O)NC(C)(c1ccccc1)c1nc(/C=C/c2ccccc2)cs1 (stereo not drawn),inactive: 28.8%
8,CCOC(=O)c1ccc(CN(Cc2ccccc2)S(=O)(=O)c2cccc([N+](=O)[O-])c2)cc1,inactive: -4.97%
9,Cc1ccc(NC(=O)C2CCC(=O)N2C(=O)OCc2ccccc2)cc1 (stereo not drawn),inactive: 10.5%
10,CCOC(=O)C1(CCOc2ccccc2)CCN(Cc2cnc(C)s2)CC1,inactive: 2.07%
11,COc1ccc(-c2nn(C)c3sc(C(=O)NCCN(C)C)cc23)cc1OC,inactive: -7.02%
12,COc1ccc(Cn2c(O)c(C=Nc3ccccc3)c3ccccc3c2=O)cc1,inactive: -0.874%
13,COc1ccc(C(=O)Nc2nc(C)c3cc4c(cc3n2)OCO4)cc1,inactive: -0.471%
14,Cn1c(=O)n(C)c2cc([N+](=O)[O-])c(N3CCN(CCO)CC3)cc21,inactive: 6.27%
15,CC(=O)OCC1OC(OC(C)=O)C(NC(=O)Cc2ccccc2)C(OC(C)=O)C1OC(C)=O (stereo not drawn),inactive: 2.3%
16,CCCOc1ccc(S(=O)(=O)n2cc(F)c(=O)[nH]c2=O)cc1,inactive: 5.61%
17,O=S(=O)(NCCN1CCOCC1)c1cc(Cl)ccc1Cl,inactive: 0.86%
18,CC1CCCC(C)N1C(=O)CSc1nc(N)cc(N)n1 (stereo not drawn),inactive: -1.74%
19,Cc1cc(NN)nc(NS(=O)(=O)c2ccccc2)n1,inactive: 5.78%
20,Cc1cc(C)nc(N2CCC(C(=O)NNC(=O)c3ccccc3)CC2)n1,inactive: -11.8%
21,CCOC(=O)c1sc(NC(=O)c2sc(C)nc2C)nc1C,inactive: 11.4%
22,Cn1nc(C2CC2)cc1NC(=O)C1(C)CCN1C(=O)CC(c1ccccc1)c1ccccc1 (stereo not drawn),inactive: 4.91%

row,Compound,growth rescue (activation)
1,COc1ccc(NC(=O)c2cc(C3CCCCN3S(=O)(=O)c3cn(C)cn3)on2)c(C)c1 (stereo not drawn),inactive: 0.534%
2,O=C(NCc1ccc(Cl)cc1)C1CCN(S(=O)(=O)N2CCOCC2)CC1,inactive: -1.78%
3,c1ccc(COc2ccc(-c3cc4nc(NCCOc5ccccc5)ccn4n3)cc2)cc1,inactive: 1.2%
4,COC(=O)Nc1nnc(/C=C/c2ccc(OC)cc2)s1,inactive: -15%
5,CCN1CCCC1CNC(=O)C(=O)Nc1ccccc1 (stereo not drawn),inactive: 12.8%
6,O=C(O)C/C(=C\c1cc2c(cc1Br)OCO2)c1nc2ccccc2s1,inactive: 14.1%
7,COc1cccc(NC(=O)C(=O)NCc2ccncc2)c1,inactive: 5.89%
8,O=C(O)c1cc([N+](=O)[O-])c(NCc2cccnc2)c([N+](=O)[O-])c1,inactive: 0.561%
9,O=C(CCl)Nc1ccc(N2CCCCCC2)cc1,inactive: -1.73%
10,Cc1cc(F)ccc1-c1cc(C(=O)Nc2ccc(F)cc2)[nH]n1,inactive: 5.53%
11,COc1ccc(OC)c(NC(=O)C2CCCN(S(=O)(=O)c3ccc(-n4cnnn4)cc3)C2)c1 (stereo not drawn),inactive: -7.82%
12,COc1ccc(NC(=O)N[C@@H](CCSC)C(=O)O)cc1OC,inactive: 6.19%
13,CC1CC(C)CN(C(=O)COC(=O)Cc2ccc(Br)cc2)C1 (stereo not drawn),inactive: 9.19%
14,Cc1cc(C)n(-c2ccc(C(=O)OCC(=O)Nc3ccc(S(N)(=O)=O)cc3)cc2)n1,inactive: 3.45%
15,Cc1ccc(C)c(-n2c(-c3cccnc3)n[nH]c2=S)c1,inactive: 4.79%
16,Cc1ccc(NC(=O)CN2C(=O)C(c3ccc(F)cc3)=NC23CCCCCC3)c(C)c1,inactive: 20.1%
17,COc1ccc(OS(=O)(=O)Cc2ccccc2)cc1,inactive: 19.3%
18,O=C(NCc1ccc(F)cc1)c1ccc(NC(=O)C2CCCO2)cc1 (stereo not drawn),inactive: 20%
19,NC(=O)C1(N2CCCCC2)CCN(C(=S)Nc2cc(F)cc(F)c2)CC1,inactive: -2.54%
20,Nc1nc(-c2cccnc2)nc2sc3c(c12)CCCC3,inactive: 10.1%
21,Cc1cccc(NC(=O)Nc2cccs2)c1C,inactive: 17.8%
22,COc1cccc(NC(=O)Nc2ccc(Cc3ccncc3)cc2)c1,inactive: 6.02%

row,Compound,growth rescue (activation)
1,CCSc1nc(=S)n(Cc2ccccc2)c(C)c1C(C)=O,inactive: 9.99%
2,COCCNC(=O)c1c(C)cc(C)cc1C,inactive: 12.8%
3,COc1ccc(Cl)cc1C(=O)OCC(=O)Nc1sccc1C(N)=O,inactive: 1.64%
4,Cc1ccccc1CN1CCN(S(=O)(=O)c2ccc(Cl)s2)CC1,inactive: 2.12%
5,O=C(COc1ccccc1Cl)NCCCNC(=O)c1cccnc1,inactive: 10.4%
6,Cc1cccc(OCCC(=O)Nc2ccc(C)c(S(=O)(=O)N3CCCCC3)c2)c1,inactive: 15.9%
7,COc1cccc(C(C(=O)NCC2CCCO2)N(C(=O)Cn2nnc3ccccc32)c2ccc(NC(C)=O)cc2)c1 (stereo not drawn),inactive: 7.53%
8,O=C(CSc1nnc2ccccn12)NC(=O)c1cccc([N+](=O)[O-])c1,inactive: 1.61%
9,Cc1ccc(NC(=O)c2ccn(C(=O)Nc3ccccc3)n2)c(C)c1,inactive: 32.4%
10,C#CC(C)(CC)NC(=O)c1cc2nc(C3CC3)cc(C(F)(F)F)n2n1 (stereo not drawn),inactive: 23.5%
11,Cc1ccc(S(=O)(=O)N2CCCC2C(=O)N2CCCCCC2)cc1 (stereo not drawn),inactive: -24.1%
12,O=C(CSc1nncs1)Nc1ccc(Cl)cn1,inactive: 0.807%
13,Cc1ccc(C(C)C)c(OCC(=O)Nc2cc(-c3nc4ccccc4[nH]3)ccc2C)c1,inactive: 20.1%
14,COc1ccc(C2c3c(ncn(Cc4ccco4)c3=N)Oc3ccc4ccccc4c32)cc1 (stereo not drawn),inactive: 7.11%
15,CCc1ccc(-n2ccc(=O)c(C(=O)O)n2)cc1,inactive: -8.94%
16,Cc1cc(S(=O)(=O)NCc2ccccc2)ccc1OCC(=O)N1CCOCC1,inactive: -8.46%
17,CC(=O)NCCNC(=O)c1ccc(-n2c(C)ccc2C)cc1,inactive: 0.238%
18,CC(C)N=c1scc(-c2cccs2)n1/N=C/c1ccc(O)c(O)c1O,inactive: -37%
19,CCOC(=O)c1cc(-c2ccccc2)sc1NC(=O)CSc1nncs1,inactive: 9.12%
20,COc1ccccc1-c1cn[nH]c1-c1ccc(OCc2ccccc2F)cc1O,inactive: -6.94%
